# Several values for one entry are separate records, joined by “and”; a condition that tells them apart may be missing. Equal values may be shown once. This list was built around the results that the source calls inconclusive (neither active nor inactive); the mix of calls is not that of the screen. For some assays here: A potency beside an inconclusive call is a rough fit, not a confirmed value. A structure can be active in one record and inactive in another. Activity calls are given as the source filed them. Unless noted, calls follow the shape of the dose curve; as a rule, active = well fitted curve in the direction sought with a large enough effect in the repeat runs; inconclusive = weak or mixed curves; inactive = no such curve, though single readings can be large; an effect the other way counts as inactive or inconclusive.
# Experiments:
# [1] = biological target: Estrogen receptor beta (Homo sapiens) (UniProt Q92731); assay: qHTS assay to identify small molecule antagonists of the estrogen receptor beta (ER-beta) signaling pathway (AID 1259378; active = well fitted inhibition curve with a large enough effect in the signal ratio in the repeat runs, not every such curve was filed as active; inconclusive = weak or mixed curves, or effect the other way; inactive = no such curve, though single readings can be large or run the other way; the % refers to the signal ratio; also: potency is read from the fitted curve at half-maximal effect; as to activity, negative = inhibition: % is scaled to controls: 0 for no effect and ±100 for the full control effect); details: ER-beta-UAS-bla HEK293T, beta-lactamase FRET ratio, 16 h
# Sequence of UniProt Q92731 (Q92731 whole entry, looked up): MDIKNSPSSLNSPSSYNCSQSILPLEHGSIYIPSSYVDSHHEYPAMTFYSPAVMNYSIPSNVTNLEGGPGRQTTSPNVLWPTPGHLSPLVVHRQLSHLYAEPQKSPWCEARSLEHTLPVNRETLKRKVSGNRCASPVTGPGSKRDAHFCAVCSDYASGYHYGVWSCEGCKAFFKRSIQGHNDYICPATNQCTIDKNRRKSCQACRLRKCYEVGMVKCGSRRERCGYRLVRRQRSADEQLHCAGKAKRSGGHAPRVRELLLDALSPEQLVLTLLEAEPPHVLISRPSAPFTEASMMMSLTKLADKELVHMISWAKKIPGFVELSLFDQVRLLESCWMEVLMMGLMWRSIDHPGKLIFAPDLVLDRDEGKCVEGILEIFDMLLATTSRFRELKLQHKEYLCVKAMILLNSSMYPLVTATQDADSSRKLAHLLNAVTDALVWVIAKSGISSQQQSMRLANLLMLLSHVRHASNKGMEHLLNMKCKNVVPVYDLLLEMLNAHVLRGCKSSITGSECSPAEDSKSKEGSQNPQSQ
# Procedure, shortened: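 Antagonist mode: compounds added to beta-lactamase reporter HEK293T ER-beta-UAS cells stimulated with E2 (1nM final), 16 hr at 37C. LiveBLAzer B/G FRET substrate, 2 hours room temperature, fluorescence read-out.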
# [2] = biological target: Thyrotropin receptor (Homo sapiens) (UniProt P16473); assay: qHTS assay to identify small molecule antagonists of the thyroid stimulating hormone receptor (TSHR) signaling pathway (AID 1259385; calls by dose curve; also: nearly all actives have a fitted effect of over 20% in size; also: potency is read from the fitted curve at half-maximal effect); details: TSHR-HEK293 cAMP HTRF, TSH-stimulated antagonist mode; activity change, negative = inhibition: at 92.4 µM (top of the series) unless noted
# Sequence of UniProt P16473 (P16473 whole entry, looked up): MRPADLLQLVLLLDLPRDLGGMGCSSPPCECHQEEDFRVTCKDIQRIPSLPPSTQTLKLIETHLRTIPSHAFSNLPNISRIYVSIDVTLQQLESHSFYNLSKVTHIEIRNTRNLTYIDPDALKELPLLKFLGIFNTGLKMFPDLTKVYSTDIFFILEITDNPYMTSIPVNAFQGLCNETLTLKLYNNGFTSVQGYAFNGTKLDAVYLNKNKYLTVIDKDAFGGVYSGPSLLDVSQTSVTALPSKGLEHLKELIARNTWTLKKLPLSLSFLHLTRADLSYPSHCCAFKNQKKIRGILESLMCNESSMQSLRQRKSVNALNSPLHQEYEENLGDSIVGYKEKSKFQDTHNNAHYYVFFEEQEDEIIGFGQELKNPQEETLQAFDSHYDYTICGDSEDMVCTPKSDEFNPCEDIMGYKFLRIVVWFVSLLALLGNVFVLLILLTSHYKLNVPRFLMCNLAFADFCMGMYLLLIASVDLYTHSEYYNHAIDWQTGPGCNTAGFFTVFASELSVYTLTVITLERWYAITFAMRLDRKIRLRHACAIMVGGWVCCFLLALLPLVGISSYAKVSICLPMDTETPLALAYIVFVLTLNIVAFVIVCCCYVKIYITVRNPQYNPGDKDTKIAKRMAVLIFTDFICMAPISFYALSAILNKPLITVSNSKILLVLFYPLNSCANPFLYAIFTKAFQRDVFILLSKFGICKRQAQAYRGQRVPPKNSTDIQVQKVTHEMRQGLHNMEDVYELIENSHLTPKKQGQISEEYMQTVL
# Procedure, shortened: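 Antagonist mode: compound-treated TSHR-expressing HEK293 cells were stimulated with 1.5 ng/mL TSH (final) in presence of Ro20-1724 for 30 min at RT. HTRF cAMP detection after 1 h; each compound tested at 15 concentrations, triplicate.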
# [3] = biological target: Progesterone receptor (Homo sapiens) (UniProt P06401); assay: qHTS assay to identify small molecule antagonists of the progesterone receptor (PR) signaling pathway (AID 1346795; active = well fitted inhibition curve with a large enough effect in the signal ratio in the repeat runs, not every such curve was filed as active; inconclusive = weak or mixed curves; the % refers to the signal ratio; also: potency is read from the fitted curve at half-maximal effect; as to activity change, negative = inhibition: % is scaled to controls: 0 for no effect and ±100 for the full control effect); details: PR-UAS-bla HEK293T, beta-lactamase FRET ratio, 16 h; activity change, negative = inhibition: at 92.4 µM (top of the series) unless noted
# Sequence of UniProt P06401 (P06401 whole entry, looked up): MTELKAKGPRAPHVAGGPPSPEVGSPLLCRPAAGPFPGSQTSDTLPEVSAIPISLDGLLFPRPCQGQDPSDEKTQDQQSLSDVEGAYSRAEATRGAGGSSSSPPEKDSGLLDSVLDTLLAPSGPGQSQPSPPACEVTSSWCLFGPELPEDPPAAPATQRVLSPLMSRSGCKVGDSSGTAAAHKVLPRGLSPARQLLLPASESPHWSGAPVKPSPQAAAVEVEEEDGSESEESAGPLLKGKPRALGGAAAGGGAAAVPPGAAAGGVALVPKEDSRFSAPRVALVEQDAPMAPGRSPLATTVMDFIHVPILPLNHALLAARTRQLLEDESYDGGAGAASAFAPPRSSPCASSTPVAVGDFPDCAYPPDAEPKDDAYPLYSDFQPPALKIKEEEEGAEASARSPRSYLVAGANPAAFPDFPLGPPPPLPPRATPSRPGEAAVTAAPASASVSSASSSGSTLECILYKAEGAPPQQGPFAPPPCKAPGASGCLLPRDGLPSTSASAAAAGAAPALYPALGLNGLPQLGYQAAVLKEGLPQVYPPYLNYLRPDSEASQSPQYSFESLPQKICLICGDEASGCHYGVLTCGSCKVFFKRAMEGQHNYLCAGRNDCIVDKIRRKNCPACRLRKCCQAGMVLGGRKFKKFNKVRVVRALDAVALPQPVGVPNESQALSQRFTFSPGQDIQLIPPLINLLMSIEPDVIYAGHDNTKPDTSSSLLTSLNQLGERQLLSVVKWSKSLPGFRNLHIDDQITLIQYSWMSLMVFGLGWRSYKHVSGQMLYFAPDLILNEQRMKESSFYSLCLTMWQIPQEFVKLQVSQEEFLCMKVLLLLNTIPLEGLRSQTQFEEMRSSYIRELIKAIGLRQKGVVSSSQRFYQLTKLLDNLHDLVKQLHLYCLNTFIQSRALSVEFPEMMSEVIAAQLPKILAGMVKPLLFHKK
# Procedure, shortened: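 After 6 hr plating at 37C in 2% stripped-serum medium, PR-UAS-bla HEK293T cells got compounds, then 1 nM R5020. Sixteen hours later, LiveBLAzer substrate was applied for 2 hr at room temperature and fluorescence was recorded.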
# [4] = qHTS assay to identify small molecule antagonists of the progesterone receptor (PR) signaling pathway - cell viability counter screen (AID 1346798); also: nearly all actives have a fitted effect of over 50% in size; also: potency is read from the fitted curve at half-maximal effect; as to activity change, negative = cytotoxicity: % is scaled to controls: 0 for no effect and ±100 for the full control effect
# Procedure, shortened: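 Viability was determined by ATP-based luminescence (CellTiter-Glo) in PR-UAS-bla HEK293T cells cultured in 2% charcoal-stripped serum and incubated 16 hr with compounds under R5020 stimulation.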
# [5] = qHTS assay to identify small molecule agonists of the androgen receptor (AR) signaling pathway in the presence of an antagonist - cell viability counter screen (AID 1259379); also: nearly all actives have a fitted effect of over 25% in size; also: potency is read from the fitted curve at half-maximal effect
# Procedure, shortened: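 MDA-kb2 human breast carcinoma cells (stable MMTV-luciferase, AR/GR responsive) were seeded 3,000 cells/well, pre-incubated 5 hr at 37C without CO2, then given 3.0uM nilutamide and compounds at 15 concentrations for 16 hr. Viability was read by CellTiter-Fluor fluorescence.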
# [6] = qHTS assay to identify small molecule antagonists of the estrogen receptor beta (ER-beta) signaling pathway - cell viability counter screen (AID 1259382); also: potency is read from the fitted curve at half-maximal effect; nearly all actives have a fitted effect of over 55% in size
# Procedure, shortened: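 ER-beta-UAS-bla HEK293T cells (2,000/well, 2% charcoal-stripped FBS) were pre-incubated 6 hr at 37C, then given compound plus 1nM final 17-beta-estradiol for 16 hr. Viability was read in the same wells by CellTiter-Glo luminescence after 30 min at room temperature.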
# [7] = qHTS assay to identify small molecule agonists of the progesterone receptor (PR) signaling pathway - cell viability counter screen (AID 1346799; calls by dose curve; also: nearly all actives have a fitted effect of over 45% in size; also: potency is read from the fitted curve at half-maximal effect)
# Procedure, shortened: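 Viability was scored by ATP luminescence (CellTiter-Glo, 30 min, room temperature) in the same wells used for the reporter readout, after 16 hr compound exposure of PR-UAS-bla HEK293T cells.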
# [8] = qHTS assay to identify small molecule agonists of the estrogen receptor alpha (ER-alpha) signaling pathway in the presence of an antagonist - cell viability counter screen (AID 1259386);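 also: potency is read from the fitted curve at half-maximal effect; cells exposed to compounds for 22 h at 37 °C before the viability read; nearly all actives have a fitted effect of over 30% in size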
# Procedure, shortened: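 VM7Luc4E2 cells (endogenous full-length ER-alpha, 4×ERE-luciferase) were held 5 days in phenol red-free medium with 10% charcoal-stripped FBS, plated, then given 10.0nM ICI-182,780 and compounds at 15 concentrations for 22hr at 37C; viability read by CellTiter-Fluor fluorescence.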
# [9] = biological target: Progesterone receptor (Homo sapiens) (UniProt P06401); assay: qHTS assay to identify small molecule agonists of the progesterone receptor (PR) signaling pathway (AID 1346784; calls by dose curve; also: potency is read from the fitted curve at half-maximal effect; nearly all actives have a fitted effect of over 30% in size); details: PR-UAS-bla HEK293T, beta-lactamase FRET ratio, 16 h; activation: at 92.4 µM (top of the series) unless noted
# Procedure, shortened: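 The screen uses PR-UAS-bla HEK 293T cells in charcoal-stripped serum (2%). Compounds are applied for 16 hr at 37C after a 6 hr pre-incubation, and reporter activity is detected with a FRET beta-lactamase substrate after 2 hr at room temperature.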
# [10] = qHTS assay to identify small molecule agonists of the estrogen receptor beta (ER-beta) signaling pathway - cell viability counter screen (AID 1259380); also: potency is read from the fitted curve at half-maximal effect; nearly all actives have a fitted effect of over 30% in size
# Procedure, shortened: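 ER-beta-UAS-bla HEK293T cells in medium with 2% charcoal-stripped FBS were preincubated 6 hr at 37C, dosed with compound in DMSO for 16 hr, then after the bla read, CellTiter-Glo was added for 30 min at room temperature; luminescence recorded.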
# [11] = qHTS assay to identify small molecule agonists of the TGF-beta/Smad signaling pathway (AID 1346859; active = well fitted activation curve with a large enough effect in the signal ratio in the repeat runs, not every such curve was filed as active; inconclusive = weak or mixed curves; the % refers to the signal ratio; also: potency is read from the fitted curve at half-maximal effect); details: SBE-bla HEK293T, TGF-beta/Smad beta-lactamase reporter, 5 h; activation: at 76.8 µM (top of the series)
# Procedure, shortened: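 Dual-wavelength fluorescence (460/530 nm emission) quantified beta-lactamase expression under the Smad binding element in HEK 293T cells following 5 hr compound treatment at 37 C.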
# [12] = biological target: Estrogen receptor beta (Homo sapiens) (UniProt Q92731); assay: qHTS assay to identify small molecule agonists of the estrogen receptor beta (ER-beta) signaling pathway (AID 1259377; active = well fitted activation curve with a large enough effect in the signal ratio in the repeat runs, not every such curve was filed as active; inconclusive = weak or mixed curves, or effect the other way; the % refers to the signal ratio; also: % is scaled to controls: 0 for no effect and ±100 for the full control effect); details: ER-beta-UAS-bla HEK293T, beta-lactamase FRET ratio, 16 h; activation: at 92.4 µM (top of the series) unless noted
# Procedure, shortened: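 Measured by fluorescence intensity from a B/G FRET beta-lactamase substrate (2 h, room temperature) in ER-beta-UAS-bla HEK293T cells treated with DMSO-dissolved compounds for 16 hr at 37C and 5% CO2.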
# [13] = qHTS assay to identify small molecule agonists of the TGF-beta/Smad signaling pathway - cell viability counter screen (AID 1346829); also: potency is read from the fitted curve at half-maximal effect; nearly all actives have a fitted effect of over 45% in size
# Procedure, shortened: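 Same-well cytotoxicity: CellTiter-Glo added after the 2 hr room-temperature beta-lactamase substrate step, luminescence measured 30 min later; cells had 5 hr of compound at 37 C.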
# [14] = activity, negative = inhibition: at 92.4 µM (top of the series) unless noted
# Tags tell the direction and shape of the fitted curve or compound fluorescence and quenching.
compound,measurement,setting,value
CCCCOC(=O)c1ccc(N)cc1,Potency,[1]; [14],"inconclusive: 10.6 µM [inhibitor, full curve]"
same,"activity, negative = inhibition",[1]; [14],inconclusive: -24.7%
same,Potency,[2],"inconclusive: 60.3 µM [falling, partial curve, poor fit]"
same,Potency,[3],"inconclusive: 23.7 µM [falling, partial curve]"
same,"activity change, negative = inhibition",[3],inconclusive: -50.8%
same,Potency,[4],inactive
CCCOC(C(=O)OC1CCN(C)CC1)(c1ccccc1)c1ccccc1,Potency,[1]; [14],"inconclusive: 26.6 µM [inhibitor, partial curve]"
same,Potency,[5],"inconclusive: 29.8 µM [cytotoxic, partial curve]"
same,Potency,[6],"inconclusive: 21.1 µM [cytotoxic, partial curve]"
same,Potency,[4],"inconclusive: 23.7 µM [cytotoxic, partial curve]"
same,Potency,[7],"inconclusive: 11.9 µM [cytotoxic, partial curve]"
CCN(CC)CCCC(C)Nc1ccnc2cc(Cl)ccc12 (configuration not stated),"activity, negative = inhibition",[1]; [14],inconclusive: -10% [at 19 µM]
same,"activity, negative = inhibition",[1]; at 8.39 µM (top of the series),inactive: -11.4%
same,Potency,[5],"inconclusive: 10.3 µM [cytotoxic, partial curve]"
same,Potency,[8],"inconclusive: 2.11 µM [cytotoxic, partial curve] and inconclusive: 4.61 µM [cytotoxic, partial curve]"
same,Potency,[9],active: 0.119 µM
same,Potency,[4],"inconclusive: 5.8 µM [cytotoxic, partial curve, poor fit]"
same,"activity change, negative = cytotoxicity",[4],inactive: 3.8% [at 8.39 µM]
O=C(NCc1ncc(C(F)(F)F)cc1Cl)c1c(Cl)cccc1Cl,"activity, negative = inhibition",[1]; [14],inconclusive: -26.8%
same,Potency,[5],active: 17.2 µM
same,Potency,[10],active: 43.3 µM
same,Potency,[6],"inconclusive: 24.3 µM [cytotoxic, full curve]"
same,"activity change, negative = inhibition",[2],inconclusive: -9.33%
same,Potency,[3],active: 24.3 µM
same,Potency,[4],"inconclusive: 43.3 µM [cytotoxic, partial curve]"
same,Potency,[11],inactive
CSc1ccc(Cl)cc1,"activity, negative = inhibition",[1]; [14],inconclusive: 23.6%
C=CC(C)CCC=C(C)C (configuration not stated),activation,[12],inconclusive: 14.1%
same,Potency,[7],inactive
COc1ccc(-c2cc(=O)c3c(O)cc(O[C@@H]4O[C@H](CO[C@@H]5O[C@@H](C)[C@H](O)[C@@H](O)[C@H]5O)[C@@H](O)[C@H](O)[C@H]4O)cc3o2)cc1O,Potency,[12],inactive
same,Potency,[13],"inconclusive: 6.01 µM [cytotoxic, single point]"
CCOC(=O)CCC(C)=O,activation,[12],inconclusive: 14.9%
same,Potency,[7],inactive
C=CCCCCCCCCC(=O)O,"activity, negative = inhibition",[1]; at 42.5 µM (top of the series),inconclusive: -41.7%
same,"activity, negative = inhibition",[1]; at 92.4 µM (top of the series),inconclusive: -27%
same,Potency,[10],"inconclusive: 43.3 µM [cytotoxic, partial curve]"
same,Potency,[4],inactive
same,Potency,[7],"inactive and inconclusive: 3.35 µM [cytotoxic, single point]"
same,Potency,[11],"inconclusive: 54.9 µM [rising, partial curve, poor fit]"
CCN1CCCC1CNC(=O)c1cc(S(N)(=O)=O)ccc1OC (configuration not stated),Potency,[1]; [14],"inconclusive: 15.4 µM [rising, full curve]"
same,Potency,[5],inactive
same,Potency,[10],"inconclusive: 12.2 µM [cytotoxic, full curve, poor fit]"
same,Potency,[6],"inconclusive: 9.69 µM [cytotoxic, full curve]"
same,Potency,[3],"inconclusive: 19.3 µM [rising, partial curve]"
same,Potency,[4],"inconclusive: 6.86 µM [cytotoxic, full curve]"
same,Potency,[7],"inconclusive: 10.9 µM [cytotoxic, partial curve]"
CC[C@H](C)C(=O)O[C@H]1C[C@H](O)C=C2C=C[C@H](C)[C@H](CC[C@@H](O)C[C@@H](O)CC(=O)O)[C@H]21,"activity, negative = inhibition",[1]; [14],inconclusive: 26.4%
CC[C@H]1CC[C@H](NCc2cc3c(cc2OC)[C@H]2C[C@H]2C(=O)N3C)[C@H](c2ccccc2)N1,Potency,[1]; [14],inactive
same,Potency,[5],"inconclusive: 30.6 µM [cytotoxic, partial curve]"
same,Potency,[10],"inconclusive: 17.2 µM [cytotoxic, full curve]"
same,Potency,[8],"inconclusive: 27.3 µM [cytotoxic, partial curve]"
same,Potency,[3],"inconclusive: 12.2 µM [falling, full curve]"
same,Potency,[4],"inconclusive: 24.3 µM [rising, partial curve]"
same,Potency,[7],"inconclusive: 15.4 µM [rising, full curve, poor fit]"
same,Potency,[11],inactive
CC1(C)[C@@H]2CC[C@@]1(C)C(=O)C2,"activity, negative = inhibition",[1]; [14],inconclusive: 24.9%
COCCCCCCCCOCCC[Si](C)(O[Si](C)(C)C)O[Si](C)(C)C,"activity, negative = inhibition",[1]; [14],inconclusive: -46.8%
same,Potency,[5],active: 17.2 µM
same,Potency,[10],"inconclusive: 34.4 µM [cytotoxic, partial curve, poor fit]"
same,Potency,[8],active: 24.3 µM
same,Potency,[4],"inconclusive: 24.3 µM [rising, partial curve]"
same,Potency,[7],"inconclusive: 5.45 µM [rising, full curve, poor fit]"

# From PubChem BioAssay (Tox21)
